Measured values: paper PMC4336329 (PLoS ONE, 2015)
In all, about 310,000 compounds went through this assay and about 14,000 (4.5%) showed an effect of 50% or more. The effect is printed as a negative number. The list shows a part of the results.

What follows are molecules tested against human ether-à-go-go-related gene (hERG) potassium channel (human, UniProt Q12809) (assay: primary screen, population patch clamp on CHO cells stably expressing hERG).
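Note: peak tail current of the secondary pulse compared with the same well before compound.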

Sequence of human ether-à-go-go-related gene (hERG) potassium channel (Q12809 whole entry, looked up): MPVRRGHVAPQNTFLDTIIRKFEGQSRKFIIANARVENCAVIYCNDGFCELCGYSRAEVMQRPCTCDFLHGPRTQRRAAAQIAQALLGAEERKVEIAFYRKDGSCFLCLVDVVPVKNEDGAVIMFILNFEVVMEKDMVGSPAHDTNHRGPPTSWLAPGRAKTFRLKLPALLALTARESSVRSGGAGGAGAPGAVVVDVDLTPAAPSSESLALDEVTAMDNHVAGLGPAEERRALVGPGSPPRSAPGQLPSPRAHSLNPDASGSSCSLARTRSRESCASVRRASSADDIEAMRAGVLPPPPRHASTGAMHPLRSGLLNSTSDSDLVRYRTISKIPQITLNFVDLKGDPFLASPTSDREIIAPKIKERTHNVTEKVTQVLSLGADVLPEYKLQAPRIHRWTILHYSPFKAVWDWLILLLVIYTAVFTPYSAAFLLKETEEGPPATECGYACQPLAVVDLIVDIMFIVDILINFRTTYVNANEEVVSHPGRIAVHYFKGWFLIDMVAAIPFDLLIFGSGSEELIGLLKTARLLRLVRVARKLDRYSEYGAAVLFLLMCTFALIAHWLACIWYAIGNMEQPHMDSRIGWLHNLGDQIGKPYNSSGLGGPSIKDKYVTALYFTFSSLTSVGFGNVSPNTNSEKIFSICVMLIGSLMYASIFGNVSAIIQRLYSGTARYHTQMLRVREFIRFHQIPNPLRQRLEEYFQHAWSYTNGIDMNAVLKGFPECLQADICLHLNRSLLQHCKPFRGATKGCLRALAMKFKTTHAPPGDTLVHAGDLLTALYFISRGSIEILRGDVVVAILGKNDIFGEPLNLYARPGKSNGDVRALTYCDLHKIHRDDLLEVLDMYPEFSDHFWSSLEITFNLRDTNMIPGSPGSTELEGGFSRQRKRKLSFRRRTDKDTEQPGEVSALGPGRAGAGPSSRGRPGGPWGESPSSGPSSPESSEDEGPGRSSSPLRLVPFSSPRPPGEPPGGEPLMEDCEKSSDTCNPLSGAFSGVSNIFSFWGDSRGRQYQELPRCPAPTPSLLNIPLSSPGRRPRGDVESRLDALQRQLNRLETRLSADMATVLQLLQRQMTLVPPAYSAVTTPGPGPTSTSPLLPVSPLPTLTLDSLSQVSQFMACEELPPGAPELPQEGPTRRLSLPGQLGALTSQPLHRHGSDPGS

Question: How did the “hERG current change (%, negative = inhibition) at 10uM” value turn out when Cc1ccc(OCCOC(=O)c2cc(S(=O)(=O)N3CCCCC3)ccc2N2CCOCC2)cc1 was run?
Answer: -9.24%

Question: With CC(C)(C)C1CCc2c(sc(NC(=O)c3ccncc3)c2C(N)=O)C1 (stereo not drawn) as the molecule, how does the “hERG current change (%, negative = inhibition) at 10uM” value read?
Answer: 20%

Question: How did the “hERG current change (%, negative = inhibition) at 10uM” value turn out when CC(=O)Nc1ccc(S(=O)(=O)N2CCCC2)cc1 was run?
Answer: 12.1%

Question: With COc1ccc(/C=C2\SC(=O)N(CC(=O)NNC(=O)c3ccccc3O)C2=O)cc1 as the molecule, how does the “hERG current change (%, negative = inhibition) at 10uM” value read?
Answer: 9.2%

Question: Which “hERG current change (%, negative = inhibition) at 10uM” value does the source give for Cc1cnc(SCc2cnc(C)nc2N)nc1 here?
Answer: 3.26%

Question: With O=C(NCc1ccncc1)C(=O)N/N=C/c1ccccn1 as the molecule, how does the “hERG current change (%, negative = inhibition) at 10uM” value read?
Answer: 16.3%

Question: How did the “hERG current change (%, negative = inhibition) at 10uM” value turn out when CC1(C)N(OCc2ccccc2)C(=O)C(=O)N(OCc2ccccc2)C1(C)C was run?
Answer: -6.11%

Question: How did the “hERG current change (%, negative = inhibition) at 10uM” value turn out when Cc1ccc(-c2nc(C#N)c(N3CCC(C)CC3)o2)cc1 was run?
Answer: 17.5%

Question: With O=C(COc1ccccc1)Nc1nnc(-c2ccc3c(c2)CCCC3)o1 as the molecule, how does the “hERG current change (%, negative = inhibition) at 10uM” value read?
Answer: 9.37%

Question: CCOC(=O)CNC(=O)/C=C/c1ccc2c(c1)OCO2 was tested. Which “hERG current change (%, negative = inhibition) at 10uM” value did it give?
Answer: 16.4%

Question: Which “hERG current change (%, negative = inhibition) at 10uM” value does the source give for CC(C)C(NC(=O)OCc1ccccc1)C(=O)OCC(=O)NCc1ccco1 (stereo not drawn) here?
Answer: 4.89%

Question: Which “hERG current change (%, negative = inhibition) at 10uM” value does the source give for CC/C(=N\NC(=O)c1ccccc1O)c1c(O)n(C2CCCCC2)c(=O)[nH]c1=O here?
Answer: 13.9%

Question: For CCCCCn1c(=O)c2ccccc2n2c(=S)[nH]nc12, which “hERG current change (%, negative = inhibition) at 10uM” value is on record?
Answer: 4.97%

Question: CCOC(=O)C(C)n1nc(/C=C/c2ccc(OC)cc2)ccc1=O (stereo not drawn) was tested. Which “hERG current change (%, negative = inhibition) at 10uM” value did it give?
Answer: -19.7%

Question: For C=CCn1c(COc2ccccc2)nnc1SCC(=O)O, which “hERG current change (%, negative = inhibition) at 10uM” value is on record?
Answer: -3.46%

Question: How did the “hERG current change (%, negative = inhibition) at 10uM” value turn out when CC(=O)Nc1ccc(NC(=O)c2ccc([N+](=O)[O-])cc2Cl)cc1 was run?
Answer: 6.15%

Question: How did the “hERG current change (%, negative = inhibition) at 10uM” value turn out when Cc1cc(=O)oc(C)c1C(=O)Nc1cccc2ccccc12 was run?
Answer: -2.06%

Question: How did the “hERG current change (%, negative = inhibition) at 10uM” value turn out when CS(=O)(=O)N(CC(=O)Nc1cccc(Cl)c1Cl)c1ccccc1 was run?
Answer: -6.78%

Question: How did the “hERG current change (%, negative = inhibition) at 10uM” value turn out when CN(C)c1ccc(/C=N\NC(=O)c2cccc3cc[nH]c23)cc1 was run?
Answer: 4.25%

Question: C/C(=C\C(=O)c1ccc(C)o1)Nc1ccc(C(=O)O)cc1C was tested. Which “hERG current change (%, negative = inhibition) at 10uM” value did it give?
Answer: 8.31%

Question: How did the “hERG current change (%, negative = inhibition) at 10uM” value turn out when CCn1c(SCC(=O)C(C)(C)C)nnc1-c1ccccc1OC was run?
Answer: 10.9%

Question: Which “hERG current change (%, negative = inhibition) at 10uM” value does the source give for O=C1CN(CC(=O)N2CCCCC2)c2ccccc2O1 here?
Answer: 10.5%

Question: With C/C=C/C(=O)N1CC2(CC(c3cccc(NC(=O)/C(C)=C/C)c3)=NO2)C[C@H]1C(N)=O (stereo partly drawn) as the molecule, how does the “hERG current change (%, negative = inhibition) at 10uM” value read?
Answer: -1.21%

Question: CS(=O)(=O)O.NC1C2CN(c3nc4c(cc3F)c(=O)c(C(=O)O)cn4-c3ccc(F)cc3F)CC12 (stereo not drawn) was tested. Which “hERG current change (%, negative = inhibition) at 10uM” value did it give?
Answer: -8.13%

Question: With Cc1cccc2sc(NNC(=O)c3ccc4c(c3)OCCO4)nc12 as the molecule, how does the “hERG current change (%, negative = inhibition) at 10uM” value read?
Answer: -21.5%

Question: CN(C)CCC(O)c1ccccc1 (stereo not drawn) was tested. Which “hERG current change (%, negative = inhibition) at 10uM” value did it give?
Answer: 9.45%

Question: For O=C(CN1C(=O)NC2(CCCC2)C1=O)Nc1nc2ccccc2s1, which “hERG current change (%, negative = inhibition) at 10uM” value is on record?
Answer: -3.9%

Question: Which “hERG current change (%, negative = inhibition) at 10uM” value does the source give for Cc1nc(C)c(C(=O)N/N=C/c2c[nH]c3ccccc23)s1 here?
Answer: 21.8%

Question: For CCn1cc(C(=O)NCCCOC(C)C)c2cc(OC)c(OC)cc2c1=O, which “hERG current change (%, negative = inhibition) at 10uM” value is on record?
Answer: -0.903%

Question: Which “hERG current change (%, negative = inhibition) at 10uM” value does the source give for O=C(c1ccc(COc2ccccc2Cl)o1)N1CCN(Cc2ccc3c(c2)OCO3)CC1 here?
Answer: -4.94%

Question: For c1ccc(CCNc2c3c(nc4ncnn24)CCC3)cc1, which “hERG current change (%, negative = inhibition) at 10uM” value is on record?
Answer: -25.7%

Question: How did the “hERG current change (%, negative = inhibition) at 10uM” value turn out when CC(=O)N/C(=C\c1ccccc1)C(=O)OCc1ccc(F)cc1 was run?
Answer: -0.974%

Question: How did the “hERG current change (%, negative = inhibition) at 10uM” value turn out when Cc1cccc(OCc2nnc(NC(=O)c3cccs3)s2)c1 was run?
Answer: 1.62%

Question: Which “hERG current change (%, negative = inhibition) at 10uM” value does the source give for O=C(CCS(=O)(=O)Cc1ccccc1)Nc1nncs1 here?
Answer: 22.1%

Question: Cc1ccc([C@@H]2[C@@H]3C(=O)N(C)C(=O)[C@@H]3[C@]3(Cc4ccccc4)C(=O)N(Cc4ccccc4)CC(=O)N23)o1 was tested. Which “hERG current change (%, negative = inhibition) at 10uM” value did it give?
Answer: -5.8%

Question: For COC(=O)c1c(C)[nH]c(C)c1-c1cccc([N+](=O)[O-])c1, which “hERG current change (%, negative = inhibition) at 10uM” value is on record?
Answer: 3.91%

Question: Cc1ccc2c(CN(C)Cc3ccc(Cl)cc3Cl)cc(=O)oc2c1 was tested. Which “hERG current change (%, negative = inhibition) at 10uM” value did it give?
Answer: -8.5%

Question: Cc1cccc(N(CC(=O)NCCSCc2ccco2)S(=O)(=O)c2ccccc2)c1 was tested. Which “hERG current change (%, negative = inhibition) at 10uM” value did it give?
Answer: -35.1%

Question: For COc1cc([N+](=O)[O-])cc2sc(NC(C)=O)nc12, which “hERG current change (%, negative = inhibition) at 10uM” value is on record?
Answer: -0.654%

Question: For C/C(CC(=O)NCc1ccco1)=N\NC(=O)c1ccc([N+](=O)[O-])cc1Cl, which “hERG current change (%, negative = inhibition) at 10uM” value is on record?
Answer: 10.5%

Question: With CC(NC(=O)c1cc(=O)[nH]c2ccc(Br)cc12)c1ccccc1 (stereo not drawn) as the molecule, how does the “hERG current change (%, negative = inhibition) at 10uM” value read?
Answer: 8.69%

Question: For O=C(Nc1nnc(-c2cccs2)o1)c1ccco1, which “hERG current change (%, negative = inhibition) at 10uM” value is on record?
Answer: -6.36%

Question: For Cc1ccc(S(=O)(=O)NC2CC3CCC2C3)cc1 (stereo not drawn), which “hERG current change (%, negative = inhibition) at 10uM” value is on record?
Answer: -1.07%

Question: Cc1ccnc(SCCn2c(N3CCOCC3)nc3c2c(=O)[nH]c(=O)n3C)n1 was tested. Which “hERG current change (%, negative = inhibition) at 10uM” value did it give?
Answer: -24.7%

Question: For O=C(CSc1ccc(S(=O)(=O)N2CCCCC2)cn1)Nc1ccccc1Br, which “hERG current change (%, negative = inhibition) at 10uM” value is on record?
Answer: -34.3%

Question: For O=C(NC1CCSc2ccccc21)c1cc(S(=O)(=O)N2CCOCC2)ccc1Cl (stereo not drawn), which “hERG current change (%, negative = inhibition) at 10uM” value is on record?
Answer: -18%

Question: Cn1nnc(NC(=O)CSc2ccc(Cl)cc2)n1 was tested. Which “hERG current change (%, negative = inhibition) at 10uM” value did it give?
Answer: 6.02%

Question: How did the “hERG current change (%, negative = inhibition) at 10uM” value turn out when COc1ccc(C(=O)NCc2cccnc2)cc1Br was run?
Answer: 6.79%

Question: For CC(C)C(NC(=O)C(NC(=O)C1O[C@@H]2OC(C)(C)O[C@@H]2[C@H]2OC(C)(C)O[C@@H]12)C(C)C)C(=O)O (stereo partly drawn), which “hERG current change (%, negative = inhibition) at 10uM” value is on record?
Answer: 6.23%

Question: For CCC(Sc1nccn1C)C(=O)Nc1cccc2ccccc12 (stereo not drawn), which “hERG current change (%, negative = inhibition) at 10uM” value is on record?
Answer: 7.42%

Question: Which “hERG current change (%, negative = inhibition) at 10uM” value does the source give for CNC(=O)c1nc(C)n(-c2cc(Cl)cc(Cl)c2)n1 here?
Answer: 5.34%

Question: O=C1CN(S(=O)(=O)c2ccc(Cl)cc2C(F)(F)F)CCN1 was tested. Which “hERG current change (%, negative = inhibition) at 10uM” value did it give?
Answer: -4.17%

Question: How did the “hERG current change (%, negative = inhibition) at 10uM” value turn out when Cc1cc(C)cc(OCc2ccc(C(=O)NN)o2)c1 was run?
Answer: 14.2%

Question: Which “hERG current change (%, negative = inhibition) at 10uM” value does the source give for O=C(Cn1nc(C(=O)O)c2ccccc2c1=O)Nc1cc(Cl)ccc1-n1cncn1 here?
Answer: 1.81%

Question: With Cc1c(/C=N/O)sc2ccccc12 as the molecule, how does the “hERG current change (%, negative = inhibition) at 10uM” value read?
Answer: -4.51%

Question: COc1ccc(NC(=S)N2N=CCC2c2ccccc2)cc1 (stereo not drawn) was tested. Which “hERG current change (%, negative = inhibition) at 10uM” value did it give?
Answer: -16.8%

Question: O=C(COC(=O)/C=C/C(=O)N1CCN(c2ccccc2)CC1)NC(c1ccccc1)c1ccccc1 was tested. Which “hERG current change (%, negative = inhibition) at 10uM” value did it give?
Answer: -47.8%
